# Data reported in article PMC4336329 (PLoS ONE, 2015).
# In all, about 310,000 compounds went through this assay and about 14,000 (4.5%) showed an effect of 50% or more. The effect is printed as a negative number. The list shows a part of the results.
# Target: human ether-à-go-go-related gene (hERG) potassium channel (human, UniProt Q12809)
# Assay: primary screen, population patch clamp on CHO cells stably expressing hERG
# 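Also: peak tail current of the secondary pulse compared with the same well before compound.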
# Chain of human ether-à-go-go-related gene (hERG) potassium channel (Q12809 whole entry, looked up): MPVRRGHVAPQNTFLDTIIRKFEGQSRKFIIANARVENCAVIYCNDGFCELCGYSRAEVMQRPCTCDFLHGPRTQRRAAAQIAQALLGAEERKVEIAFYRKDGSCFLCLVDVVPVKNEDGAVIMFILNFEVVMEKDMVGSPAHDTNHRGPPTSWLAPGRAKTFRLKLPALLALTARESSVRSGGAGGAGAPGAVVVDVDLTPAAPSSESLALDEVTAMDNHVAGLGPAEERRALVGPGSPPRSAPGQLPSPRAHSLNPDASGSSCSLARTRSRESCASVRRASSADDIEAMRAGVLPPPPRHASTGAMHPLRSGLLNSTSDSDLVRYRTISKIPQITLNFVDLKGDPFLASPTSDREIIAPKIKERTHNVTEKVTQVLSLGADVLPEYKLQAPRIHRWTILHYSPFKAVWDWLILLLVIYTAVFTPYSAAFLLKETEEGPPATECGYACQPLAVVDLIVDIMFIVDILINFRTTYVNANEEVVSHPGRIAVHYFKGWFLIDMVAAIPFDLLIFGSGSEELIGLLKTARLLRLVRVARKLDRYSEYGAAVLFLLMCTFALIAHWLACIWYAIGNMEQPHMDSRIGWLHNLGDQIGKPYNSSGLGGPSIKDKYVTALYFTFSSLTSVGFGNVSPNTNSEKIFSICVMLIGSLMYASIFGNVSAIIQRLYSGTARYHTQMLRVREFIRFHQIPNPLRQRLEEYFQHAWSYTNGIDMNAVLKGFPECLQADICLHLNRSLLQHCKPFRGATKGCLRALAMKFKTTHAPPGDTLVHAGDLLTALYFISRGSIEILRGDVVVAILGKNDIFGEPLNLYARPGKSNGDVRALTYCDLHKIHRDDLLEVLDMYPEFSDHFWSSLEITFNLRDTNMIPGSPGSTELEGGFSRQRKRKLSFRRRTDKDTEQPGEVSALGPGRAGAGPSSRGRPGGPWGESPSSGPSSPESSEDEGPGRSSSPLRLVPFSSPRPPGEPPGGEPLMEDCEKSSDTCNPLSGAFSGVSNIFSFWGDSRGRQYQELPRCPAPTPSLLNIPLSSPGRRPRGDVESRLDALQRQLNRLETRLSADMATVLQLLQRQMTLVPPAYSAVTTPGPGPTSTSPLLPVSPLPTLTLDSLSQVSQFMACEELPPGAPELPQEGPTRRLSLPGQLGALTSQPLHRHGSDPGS
row,SMILES,"hERG current change (%, negative = inhibition) at 10uM"
1,CCc1cc(Br)ccc1NC(=O)C1CCCO1 (stereo not drawn),-7.92%
2,CCCCCC(=O)N(Cc1ccccc1)c1c(N)n(CCOC)c(=O)[nH]c1=O,12.9%
3,Oc1ccccc1CNc1nc2ccccc2n1CCN1CCCCC1,-2.31%
4,O=C(Nc1ccccc1C(F)(F)F)c1c(F)cccc1Cl,3.77%
5,Cc1ccc(S(=O)(=O)/N=C(\CSC(N)=O)Nc2ccccc2)cc1,3.04%
6,CCOc1ccc(Nc2nc(N)nc(CSC(=S)N3CCN(c4ccccc4)CC3)n2)cc1,17.2%
7,O=C(Nc1ccc(S(=O)(=O)Nc2ccccn2)cc1)c1ccc(Cl)cc1Cl,2.92%
8,Cc1ccc(CS(=O)Cc2ccc(C(=O)N3CCN(c4ccc(F)cc4)CC3)o2)cc1 (stereo not drawn),-52.9%
9,COc1ccccc1N1C(=NC(=O)CCc2ccccc2)SC2CS(=O)(=O)CC21 (stereo not drawn),14%
10,CCn1cc(/C=C2\SC(=O)N(CC(=O)Nc3ccc4c(c3)OCO4)C2=O)c2ccccc21,0.0955%
11,COc1ccc2c(=O)c3c(=O)n(Cc4ccco4)c(-c4ccc(C)cc4)nc3oc2c1,-53.3%
12,CCC(=NCCc1c[nH]c2ccccc12)c1c(O)n(-c2ccc(C)cc2)c(=O)[nH]c1=O,14.3%
13,CCCNC(=O)c1ccc2c(c1)ncn2-c1cc(C)cc(C)c1,-55.1%
14,COc1cc([N+](=O)[O-])ccc1NC(=O)C1C2C=CC(C2)C1C(=O)O (stereo not drawn),24.3%
15,CC(/C=N/NC(=O)c1cc(-c2ccc(C)s2)[nH]n1)=C\c1ccccc1,-0.45%
16,CCOC(=O)Cc1csc(NC(=O)c2c(-c3c(Cl)cccc3Cl)noc2C)n1,-4.82%
17,CCc1ccc(N=C2NC(=O)CS2)cc1,3.68%
18,Cn1c(N)c(C(=O)CSc2ccc3c(c2)OCCO3)c(=O)n(C)c1=O,12.2%
19,O=C1NC(=Nc2ccccc2)SC1Cc1ccccc1 (stereo not drawn),5.97%
20,COc1cc(C(=O)ON=C2C(C)=CC(=O)C=C2C)cc(OC)c1OC,-11.9%
21,Cc1nn(Cc2ccc(F)cc2)c(C)c1NC(=O)c1noc2c1CCCCC2,2.3%
22,Cc1ccc2nc3n(c(=O)c2c1)-c1ccccc1C(=O)NC3Cc1ccccc1 (stereo not drawn),5.22%
23,COP(=O)(OC)C1(O)C(=O)Nc2ccc(Br)cc21 (stereo not drawn),10.2%
24,COc1ccccc1NC(=O)C1CC(C(C)C)OC1=O (stereo not drawn),7.27%
